Tests used:
[1] = tested on: human lung epithelial cell line A549
Arg9-GFP = Arg9-GFP (Aequorea victoria, UniProt P42212)
Method: FIGS. 9A-D. Modulation of effector entry into root cells by phosphoinositides a, Stimulation of Avr1b(N)-GFP entry by PI-4-P and inhibition by IP2. b, Stimulation of AvrL567(N)-GFP entry by PI-4-P and inhibition by IP2. c, Entry of Arg9-GFP is not stimulated by PI-4-P nor inhibited by IP2. In each case, 1 mg/ml protein was incubated with soybean root tips for 9 hr or 12 hr then washed and photographed. Either 250 μM di-octanoyl-PI-4-P or 500 μM IP2 was preincubated with the proteins for 30 min prior to exposure to the roots.
To test whether IP2 could block effector uptake in planta, which would imply that a PI-4-P-like molecule mediated uptake in planta, Avr1b(N)-GFP (SEQ ID NO: 46) or AvrL567(N)-GFP (SEQ ID NO: 119) was preincubated with 500 μM IP2 for 30 min prior to exposure to soybean roots.
Liposomes were prepared from a suspension of 0.71 μg/ml phosphatidyl-choline, 0.29 μg/ml phosphatidyl-ethanolamine (PC/PE) or 0.64 μg/ml phosphatidyl-choline, 0.26 μg/ml phosphatidyl-ethanolamine, 0.1 μg/ml phosphatidyl-inositol-phosphate (PC/PE/PI-x-P). The lipid mixtures were dried under vacuum overnight, then the resultant lipid films were rehydrated at 1 mg/mL (total lipid) in 20 mM Tris-HCl (pH 6.8) 100 mM NaCl, 2 mM dithiothreitol by three cycles of freeze-thawing. […] Pellets containing liposome-bound proteins and supernatants containing free proteins, were then analyzed by SDS-PAGE. […]

O=P(O)(O)OC1[C@@H](O)[C@H](O)C(OP(=O)(O)O)[C@H](O)[C@@H]1O (some centres unmarked) [IP2, Inositol-1,4-diphosphate]
inhibition of accumulation/entry of AvrL567(N)-GFP in A549 cells [1]: strongly inhibited
inhibition of binding of Arg9-GFP to liposomes (Arg9-GFP): could not inhibit

— patent publication US20140331365A1 (priority 2008, published 2014)
